The list shows a part of the results. The full chains were built here from the parent and the listed change. Inactive controls read about 0.05.
B1: TEV protease; numbered along this chain (parent)
chain: MGESLFKGPRDYNPISSSICHLTNESDGHTTSLYGIGFGPFIITNKHLFRRNNGTLVVQSLHGVFKVKDTTTLQQHLVDGRDMIIIRMPKDFPPFPQKLKFREPQREERICLVTTNFQTKSMSSMVSDTSCTFPSGDGIFWKHWIQTKDGQCGSPLVSTRDGFIVGIHSASNFTNTNNYFTSVPKNFMELLTNQEAQQWVSGWRLNADSVLWGGHKVFMVKPEEPFQPVKEATQL

Variants of: B1
Assay: raw area under fraction-flipped curve 0-4 h after induction (AUC4h, not background-subtracted), DNA-recorder readout of cleavage of the substrate (dimensionless); higher = more cleavage of the substrate by the protease variant
Conditions: temperature: 34 °C; time window: 0-4 h after rhamnose induction
Experimental: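 In vivo DNA recorder in E. coli TOP10(DE3) ΔrhaA at 34 °C. Each TEVp single-site mutant (parent TEVp 0) is paired with a single-site variant of the 7-mer TEVs (canonical ENLYFQ|S). The substrate sits between flexible linkers in a Bxb1-sfGFP-TEVs-SsrA fusion, so cleavage stabilises Bxb1 and speeds flipping of a recombination array, read by NGS. The value is the raw area under the fraction-flipped curve over 0-4 h after rhamnose induction (AUC4h), with ≥20 reads per time point. It is not background-subtracted; inactive controls average about 0.047.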
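Also: Bxb1 expression induced with 0.2% (w/v) L-rhamnose at OD600 near 0.5, cultures sampled hourly, flipped fraction per protease–substrate barcode pair counted by paired-end Illumina sequencing.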

L22N
area with substrate ENLYFQC: 0.0402 | area with substrate ENLYFQE: 0.0469 | area with substrate ENLYFQG: 0.0808 | area with substrate ENLYFQH: 0.0493 | area with substrate ENLYFQI: 0.0502 | area with substrate ENLYFQK: 0.0208 | area with substrate ENLYFQN: 0.032 | area with substrate ENLYFQP: 0.0407 | area with substrate ENLYFQQ: 0.064 | area with substrate ENLYFQR: 0.0651 | area with substrate ENLYFQS: 0.0499 | area with substrate ENLYFQT: 0.0484 | area with substrate ENLYFQV: 0.062

N24M
area with substrate ENLYFQC: 0.125 | area with substrate ENLYFQF: 0.0774 | area with substrate ENLYFQH: 0.0844 | area with substrate ENLYFQI: 0.067 | area with substrate ENLYFQK: 0.0652 | area with substrate ENLYFQL: 0.0693 | area with substrate ENLYFQM: 0.0834 | area with substrate ENLYFQN: 0.0846 | area with substrate ENLYFQP: 0.0606 | area with substrate ENLYFQR: 0.0673 | area with substrate ENLYFQS: 0.0948 | area with substrate ENLYFQT: 0.0947 | area with substrate ENLYFQW: 0.0725

H29K
area with substrate ENLYFQC: 0.177 | area with substrate ENLYFQG: 0.0881 | area with substrate ENLYFQI: 0.0674 | area with substrate ENLYFQR: 0.0675 | area with substrate ENLYFQS: 0.0963 | area with substrate ENLYFQT: 0.0649 | area with substrate ENLYFQV: 0.0235

H29S
area with substrate ENLYFQC: 0.102 | area with substrate ENLYFQD: 0.0964 | area with substrate ENLYFQE: 0.0747 | area with substrate ENLYFQG: 0.0974 | area with substrate ENLYFQH: 0.0822 | area with substrate ENLYFQI: 0.0742 | area with substrate ENLYFQK: 0.0595 | area with substrate ENLYFQL: 0.0591 | area with substrate ENLYFQM: 0.0962 | area with substrate ENLYFQP: 0.0587 | area with substrate ENLYFQR: 0.0715 | area with substrate ENLYFQS: 0.115 | area with substrate ENLYFQT: 0.0778 | area with substrate ENLYFQV: 0.0709 | area with substrate ENLYFQW: 0.0665 | area with substrate ENLYFQY: 0.0736

H29V
area with substrate ENLYFQC: 0.108 | area with substrate ENLYFQD: 0.0727 | area with substrate ENLYFQE: 0.0582 | area with substrate ENLYFQF: 0.0961 | area with substrate ENLYFQG: 0.0992 | area with substrate ENLYFQH: 0.084 | area with substrate ENLYFQI: 0.0636 | area with substrate ENLYFQK: 0.0516 | area with substrate ENLYFQL: 0.0676 | area with substrate ENLYFQM: 0.121 | area with substrate ENLYFQN: 0.0687 | area with substrate ENLYFQP: 0.0546 | area with substrate ENLYFQR: 0.0547 | area with substrate ENLYFQS: 0.107 | area with substrate ENLYFQT: 0.0617 | area with substrate ENLYFQV: 0.0565

T30Q
area with substrate ENLYFQC: 0.145 | area with substrate ENLYFQD: 0.0651 | area with substrate ENLYFQE: 0.06 | area with substrate ENLYFQG: 0.0699 | area with substrate ENLYFQH: 0.0698 | area with substrate ENLYFQI: 0.0666 | area with substrate ENLYFQK: 0.0614 | area with substrate ENLYFQL: 0.0727 | area with substrate ENLYFQM: 0.0941 | area with substrate ENLYFQN: 0.082 | area with substrate ENLYFQQ: 0.0633 | area with substrate ENLYFQR: 0.0537 | area with substrate ENLYFQS: 0.0906 | area with substrate ENLYFQT: 0.065 | area with substrate ENLYFQV: 0.0653

G35W
area with substrate ENLYFQC: 0.0512 | area with substrate ENLYFQK: 0.0557 | area with substrate ENLYFQM: 0.0565 | area with substrate ENLYFQQ: 0.0519 | area with substrate ENLYFQR: 0.0589 | area with substrate ENLYFQS: 0.0491 | area with substrate ENLYFQT: 0.0502 | area with substrate ENLYFQV: 0.0445

I36F
area with substrate ENLYFQC: 0.0882 | area with substrate ENLYFQD: 0.0656 | area with substrate ENLYFQF: 0.0557 | area with substrate ENLYFQG: 0.0723 | area with substrate ENLYFQH: 0.0489 | area with substrate ENLYFQI: 0.053 | area with substrate ENLYFQM: 0.0733 | area with substrate ENLYFQN: 0.0604 | area with substrate ENLYFQP: 0.0444 | area with substrate ENLYFQR: 0.0674 | area with substrate ENLYFQS: 0.084 | area with substrate ENLYFQT: 0.048 | area with substrate ENLYFQV: 0.0558 | area with substrate ENLYFQW: 0.074

F38N
area with substrate ENLYFQC: 0.108 | area with substrate ENLYFQD: 0.0545 | area with substrate ENLYFQG: 0.108 | area with substrate ENLYFQH: 0.0653 | area with substrate ENLYFQI: 0.0522 | area with substrate ENLYFQK: 0.0545 | area with substrate ENLYFQL: 0.054 | area with substrate ENLYFQN: 0.0646 | area with substrate ENLYFQP: 0.0603 | area with substrate ENLYFQR: 0.0493 | area with substrate ENLYFQS: 0.0803 | area with substrate ENLYFQT: 0.0623 | area with substrate ENLYFQV: 0.0329 | area with substrate ENLYFQW: 0.0742 | area with substrate ENLYFQY: 0.0498

G39H
area with substrate ENLYFQC: 0.045 | area with substrate ENLYFQD: 0.0481 | area with substrate ENLYFQG: 0.049 | area with substrate ENLYFQI: 0.0394 | area with substrate ENLYFQK: 0.0423 | area with substrate ENLYFQL: 0.0371 | area with substrate ENLYFQM: 0.0443 | area with substrate ENLYFQP: 0.032 | area with substrate ENLYFQR: 0.0239 | area with substrate ENLYFQS: 0.0454 | area with substrate ENLYFQV: 0.0545 | area with substrate ENLYFQW: 0.0466 | area with substrate ENLYFQY: 0.0442

T44H
area with substrate ENLYFQC: 0.0348 | area with substrate ENLYFQE: 0.0451 | area with substrate ENLYFQG: 0.0528 | area with substrate ENLYFQH: 0.0532 | area with substrate ENLYFQI: 0.0537 | area with substrate ENLYFQK: 0.0484 | area with substrate ENLYFQL: 0.0462 | area with substrate ENLYFQM: 0.0378 | area with substrate ENLYFQN: 0.0473 | area with substrate ENLYFQQ: 0.0502 | area with substrate ENLYFQR: 0.0355 | area with substrate ENLYFQS: 0.055 | area with substrate ENLYFQV: 0.0249 | area with substrate ENLYFQY: 0.0447

N45R
area with substrate ENLYFQC: 0.0637 | area with substrate ENLYFQD: 0.0496 | area with substrate ENLYFQF: 0.0397 | area with substrate ENLYFQG: 0.0622 | area with substrate ENLYFQH: 0.0655 | area with substrate ENLYFQK: 0.0561 | area with substrate ENLYFQL: 0.0945 | area with substrate ENLYFQM: 0.0573 | area with substrate ENLYFQN: 0.0566 | area with substrate ENLYFQP: 0.0727 | area with substrate ENLYFQQ: 0.0561 | area with substrate ENLYFQR: 0.0575 | area with substrate ENLYFQS: 0.0599 | area with substrate ENLYFQT: 0.0548 | area with substrate ENLYFQV: 0.0643 | area with substrate ENLYFQY: 0.0417

R51F
area with substrate ENLYFQC: 0.167 | area with substrate ENLYFQI: 0.0509 | area with substrate ENLYFQK: 0.0718 | area with substrate ENLYFQL: 0.0619 | area with substrate ENLYFQM: 0.109 | area with substrate ENLYFQN: 0.0869 | area with substrate ENLYFQP: 0.0625 | area with substrate ENLYFQR: 0.0527 | area with substrate ENLYFQS: 0.12 | area with substrate ENLYFQT: 0.0625 | area with substrate ENLYFQV: 0.0614 | area with substrate ENLYFQW: 0.077 | area with substrate ENLYFQY: 0.101

Reference: the supplement of paper PMC12217912
